{"source": "ChEMBL document CHEMBL4888484", "about": "“Replenishing the malaria drug discovery pipeline: Screening and hit evaluation of the MMV Hit Generation Library 1 (HGL1) against asexual blood stage Plasmodium falciparum ,using a nano luciferase reporter read-out” (2022)", "note": "Hit rate of the full screen: of about 150,000 compounds, about 540 (0.36%) showed an effect of 50% or more. Some of the results follow.", "data": [{"tested_on": "Plasmodium falciparum", "test": "Primary screen in NF54 nanoGlo assay, in single point, at 2uM, 72h; a lower Z score goes with more inhibition", "assay_type": "functional, Erythrocyte", "details": "timepoint 72 hour", "units": {"% Inhibition": "%"}, "values": [{"smiles": "COCCNCc1cc(Cl)ccc1OC", "% Inhibition": -4, "Z score": 0.45}, {"smiles": "CCOC(=O)C1=C(c2ccccc2)SC(=C2C(=S)C(C)(C)Nc3cc(C)ccc32)S1", "% Inhibition": -2, "Z score": 0.37}, {"smiles": "NC(=O)c1csc(-c2cc(N)nc3[nH]ccc23)n1", "% Inhibition": 2, "Z score": -0.4}, {"smiles": "C[C@H](NC(=O)c1cc(F)ccc1O)C(=O)N1CCCCC1", "% Inhibition": -8, "Z score": 0.86}, {"smiles": "CC(C(=O)NCC1COc2ccccc2O1)N1C2CCC1CC(O)C2", "note": "(configuration not stated)", "% Inhibition": -11, "Z score": 2.2}, {"smiles": "CCCNC(=O)NC(=O)COc1cc(C)ccc1C", "% Inhibition": -4, "Z score": 0.49}, {"smiles": "COc1ccc(S(=O)(=O)N2CCC3(CCC(=O)N3C)CC2)cc1Cl", "% Inhibition": -1, "Z score": 0.17}, {"smiles": "O=C(NCC1(c2ccsc2)CCOCC1)C1CCC1", "% Inhibition": 5, "Z score": -0.85}, {"smiles": "CN1C(=O)[C@@]23CCCCN2C[C@@]12C[C@@]1(C(=O)Nc4c1ccc1c4OC=CC(C)(C)O1)C(C)(C)[C@@H]2C3", "% Inhibition": 30, "Z score": -3.44}, {"smiles": "N#Cc1cnn(C(=O)c2cccc(S(=O)(=O)Nc3cccc(Cl)c3)c2)c1N", "% Inhibition": 0, "Z score": 0.03}, {"smiles": "c1ccc(-c2c[nH]nc2N2CCOCC2)cc1", "% Inhibition": 35, "Z score": -2.21}, {"smiles": "Cn1c(-c2nccn2[C@H]2CC(=O)N(Cc3ccccc3)C2)nc2ccccc21", "% Inhibition": 4, "Z score": -0.79}, {"smiles": "CN(C(=O)c1ccn(C)c(=O)c1)c1ccc(N2CCOCC2)nc1", "% Inhibition": -3, "Z score": 0.32}, {"smiles": "Cc1ccc2ncccc2c1-c1nccn1Cc1ccco1", "% Inhibition": -17, "Z score": 2.31}, {"smiles": "CCC(Oc1ccc2c(c1)C(c1ccccc1)N(C(C)=O)CC2)C(=O)NCC1CC1", "note": "(configuration not stated)", "% Inhibition": -5, "Z score": 0.61}, {"smiles": "O=C(O)c1nnn(-c2ccccc2Cl)c1-c1ccccn1", "% Inhibition": -10, "Z score": 1.12}, {"smiles": "COc1ccc(CNCC(=O)Nc2cnccn2)c(F)c1F", "% Inhibition": 16, "Z score": -2.18}, {"smiles": "CC[C@H](C)n1nccc1NC(=O)c1csc2nc(C)cn12", "% Inhibition": -13, "Z score": 1.9}, {"smiles": "CC(C)c1nc2c(NS(=O)(=O)c3cccs3)cccn2n1", "% Inhibition": 15, "Z score": -1.75}, {"smiles": "Cc1cnc(C(=O)N[C@H]2CCO[C@@H]2c2cc[nH]n2)cc1C", "% Inhibition": 4, "Z score": -0.75}, {"smiles": "O=S(=O)(c1ccccc1Br)N1CCCN([C@H]2CCOC2)CC1", "% Inhibition": -12, "Z score": 2.06}, {"smiles": "c1cncc(Oc2cccc(OCc3nnc4n3CCCCC4)c2)c1", "% Inhibition": -6, "Z score": 1.04}, {"smiles": "C[C@H]1CNc2c(C=S)c3ccccc3n2C1", "% Inhibition": -12, "Z score": 1.85}, {"smiles": "Fc1ccccc1C1(CN2CCc3[nH]ncc3C2)CC1", "% Inhibition": -10, "Z score": 1.96}, {"smiles": "CCOC(=O)c1csc(N(c2ccc(C(F)(F)F)cc2)c2ncc(C(F)(F)F)cc2Cl)n1", "% Inhibition": 0, "Z score": 0.01}, {"smiles": "NC(=O)C(NC(=O)C1CC2CCC1C2)c1cccc(Br)c1", "note": "(configuration not stated)", "% Inhibition": -9, "Z score": 1.37}, {"smiles": "Cc1n[nH]c(CNc2ncnc3scnc23)c1C", "% Inhibition": -2, "Z score": 0.3}, {"smiles": "Cc1nncn1-c1cccc(NC(=O)[C@@H]2COCCN2CC2CCC2)c1", "% Inhibition": -12, "Z score": 1.92}, {"smiles": "Cc1cnc(C2CN(C(=O)CCc3ccccc3)C2)n1CC1CC1", "% Inhibition": -13, "Z score": 1.69}, {"smiles": "O=S(=O)(c1cccnc1)N1CCC[C@H](Cc2nc(C3CC3)no2)C1", "% Inhibition": 6, "Z score": -0.78}, {"smiles": "O=C(c1nc2cnccc2s1)N1CCOC[C@@H]1CC1CC1", "% Inhibition": -2, "Z score": 0.19}, {"smiles": "Cc1ccc(OC2CCN(Cc3ccncc3)CC2)c(C(=O)NC2CCC2)c1", "% Inhibition": 2, "Z score": -0.26}, {"smiles": "CCCCNC(=O)Cc1noc(-c2noc3c2CCCC3)n1", "% Inhibition": -18, "Z score": 1.52}, {"smiles": "Cc1ncsc1CCC(=O)N(C)CCN(C)C1CC1", "% Inhibition": -3, "Z score": 0.33}, {"smiles": "O=C(c1cncc(F)c1)N1C2CCC1CC(n1cccn1)C2", "note": "(configuration not stated)", "% Inhibition": -22, "Z score": 2.83}, {"smiles": "CN1CCC(N(C[C@H]2CCOC2)C(=O)c2cc(Cl)ccc2F)CC1", "% Inhibition": -13, "Z score": 1.68}, {"smiles": "COc1ccc(CCNC(=O)[C@H]2CC(=O)N(C3CCCCCCC3)C2)cc1OC", "% Inhibition": 0, "Z score": -0.02}, {"smiles": "Cn1c(CN2CCCC2)nnc1C1CCN(c2nc3ccccc3o2)CC1", "% Inhibition": -9, "Z score": 1.14}, {"smiles": "Cc1nc(N2CCCC2)c2c(C(=O)NCc3ccco3)c(C)oc2n1", "% Inhibition": 7, "Z score": -1.15}, {"smiles": "CCNc1nc(N2CCCCC2)nc2c1cnn2C", "% Inhibition": 4, "Z score": -0.66}, {"smiles": "O=C1CCN(C(=O)c2ccc(Cl)cc2)c2ccccc21", "% Inhibition": -9, "Z score": 1.24}, {"smiles": "Cn1c(Cn2cncn2)nnc1C1CCN(c2nccs2)CC1", "% Inhibition": -6, "Z score": 0.92}, {"smiles": "COc1ccc(Cl)cc1S(=O)(=O)N(C1CCCCC1)C1CCCCC1", "% Inhibition": -9, "Z score": 1.73}, {"smiles": "Cc1ccc(-c2ccc(C(=O)Nc3cccnc3)o2)cc1Cl", "% Inhibition": -2, "Z score": 0.25}, {"smiles": "Nc1c(Cl)ccc(Br)c1F", "% Inhibition": -7, "Z score": 0.91}, {"smiles": "Cc1nn(C)c(C)c1CCC(=O)N(C)C[C@@H]1OCCc2sccc21", "% Inhibition": -13, "Z score": 1.57}, {"smiles": "CC1(C)CC(=O)NCCN1Cc1cnn(-c2ccccc2)n1", "% Inhibition": -12, "Z score": 2.35}, {"smiles": "CCN1C(=O)[C@](C)(C(=O)Nc2cc(OC)ccc2OC)Oc2cccnc21", "% Inhibition": -4, "Z score": 0.74}, {"smiles": "COCCN(CC(=O)N1CCc2sccc2[C@@H]1COc1ccc(C(C)C)cc1)C(=O)Nc1ccc(C)cc1", "% Inhibition": -6, "Z score": 0.64}, {"smiles": "COCCn1nc([C@@H]2CCCCN2C(=O)c2ccn(C)n2)c2c1CCOC2", "% Inhibition": -13, "Z score": 1.24}, {"smiles": "C[C@@H](CCNC(=O)c1ccc(-c2nc(CCN(C)C(=O)c3ccc(F)cc3)no2)cc1)N1CCCC1", "% Inhibition": -23, "Z score": 2.08}, {"smiles": "Cc1nn(-c2ccc(F)cc2)c2c1c(=O)c(C(=O)NCCC(C)C)cn2C", "% Inhibition": -3, "Z score": 0.39}, {"smiles": "O=C(N[C@H]1CCOC2(CCC2)C1)c1ccc2c(c1)S(=O)(=O)Nc1ncnn1-2", "% Inhibition": 0, "Z score": -0.03}, {"smiles": "COc1cc(CCNS(=O)(=O)N2CCN(C)CC2)ccc1C", "% Inhibition": -7, "Z score": 0.8}, {"smiles": "Cc1nc2ccnn2cc1C(=O)N1CCOCC12CCC2", "% Inhibition": 4, "Z score": -0.74}, {"smiles": "O=C(Nc1ccc2oc(-c3ccc4ccccc4c3)nc2c1)c1ccccc1F", "% Inhibition": -11, "Z score": 1.64}, {"smiles": "COc1ccc(-c2ccnc3cc(C(=O)Nc4ccc(C(C)C)cc4)nn23)cc1OC", "% Inhibition": 1, "Z score": -0.09}, {"smiles": "CC(C)CC(CCO)CNC(=O)N1CC2CC=CCC2C1", "note": "(configuration not stated)", "% Inhibition": -3, "Z score": 0.37}, {"smiles": "CN(C)C(=O)[C@@H]1CCCN1c1cccc(F)c1C#N", "% Inhibition": -11, "Z score": 1.57}, {"smiles": "O=C(NCc1cccnc1)C1C2C(=O)N(CCc3ccccc3)C[C@@]23C=C[C@@H]1O3", "note": "(some centres not stated)", "% Inhibition": -7, "Z score": 0.85}, {"smiles": "C#CCCN1CCN(C(=O)c2ccc3c(c2)COCO3)CC1", "% Inhibition": -4, "Z score": 0.45}, {"smiles": "COCc1nc2n(n1)CCCC2NCC(C)c1ccc(F)cc1", "note": "(configuration not stated)", "% Inhibition": -15, "Z score": 1.65}, {"smiles": "CCC(CC)[C@H](NC(=O)c1cc(OC)c(S(N)(=O)=O)s1)c1ccccc1", "% Inhibition": -10, "Z score": 1.36}, {"smiles": "CNS(=O)(=O)[C@H]1CCCN(Cc2nn(C)cc2C)C1", "% Inhibition": -7, "Z score": 1.35}, {"smiles": "CS(=O)(=O)C1(CNC(=O)c2c(F)ccc(O)c2F)CC1", "% Inhibition": -5, "Z score": 0.8}, {"smiles": "C#CCNC(=O)CNC(=O)c1cc(C)c(F)c(C)c1", "% Inhibition": 0, "Z score": -0.09}, {"smiles": "COc1ccc(S(=O)(=O)Nc2ccc(N3CCCCC3=O)c(C)c2)cc1", "% Inhibition": -16, "Z score": 2.51}, {"smiles": "Cc1n[nH]c(C)c1CNC(=O)C[C@@H]1OCCc2sccc21", "% Inhibition": -5, "Z score": 0.81}, {"smiles": "CCc1ccccc1-n1nc(-c2ccc(OC)cc2)cc1-c1ccc(OC)cc1", "% Inhibition": -10, "Z score": 1.56}, {"smiles": "C=CCn1cc(CN(C)Cc2nc(CC(C)C)no2)c(C)n1", "% Inhibition": -14, "Z score": 2.66}, {"smiles": "COc1cc(C)ccc1S(=O)(=O)N1CCCN(Cc2ccncc2)CC1", "% Inhibition": -11, "Z score": 1.3}, {"smiles": "COc1ccc(OC)c([C@H]2CC(=O)Nc3c2cnn3Cc2ccco2)c1", "% Inhibition": 6, "Z score": -0.79}, {"smiles": "CC(C)Cc1cc(C(=O)N[C@H](CO)C(C)C)c2ccccc2n1", "% Inhibition": -6, "Z score": 0.77}, {"smiles": "Cc1nc(CN(C)[C@@H](C)c2cccs2)n(C)c1C", "% Inhibition": 11, "Z score": -1.52}, {"smiles": "CC(C)CN(CC(=O)Nc1nc(CC(=O)NCc2ccccc2)cs1)C(=O)C1CCCCC1", "% Inhibition": 4, "Z score": -0.66}, {"smiles": "Cc1cscc1NC(=O)N1CCC[C@H](c2ccn(C)n2)C1", "% Inhibition": 3, "Z score": -0.59}, {"smiles": "O=C(Nc1cccc(-c2nnco2)c1)N1CCC12CCC2", "% Inhibition": -6, "Z score": 0.59}, {"smiles": "O=C(N[C@@H]1[C@H]2CCO[C@H]2[C@H]1Cc1ccccc1)c1ccc[nH]1", "% Inhibition": -11, "Z score": 1.1}, {"smiles": "CCOc1ccccc1[C@H](CC(=O)NCCCCNC(=O)OC(C)(C)C)NC(C)=O", "% Inhibition": 0, "Z score": 0}, {"smiles": "CCOC(=O)N1CCC(Nc2nc3c(s2)c(C)nn3C)CC1", "% Inhibition": -4, "Z score": 0.61}, {"smiles": "COc1cc(C(=O)N[C@@H](CCO)C2CCOCC2)on1", "% Inhibition": -22, "Z score": 4.43}, {"smiles": "CC1COC(c2cccc(Cl)c2)CN1C(=O)Cn1cnnn1", "note": "(configuration not stated)", "% Inhibition": 6, "Z score": -1.13}, {"smiles": "O=C(NCc1ccco1)C(=O)N1CCCC1", "% Inhibition": -6, "Z score": 0.88}, {"smiles": "CC(C)[C@H](Oc1ccc(F)cc1F)C(=O)NS(=O)(=O)c1cccnc1", "% Inhibition": -4, "Z score": 0.69}, {"smiles": "O=c1[nH]c(N2C[C@H](CO)C[C@H](CO)C2)nc2c1Cc1ccccc1OC2", "% Inhibition": -12, "Z score": 2.02}, {"smiles": "CN(Cc1cscn1)c1ccnc(CO)c1", "% Inhibition": 22, "Z score": -2.8}]}]}
